# Experimental data reported in US20220370434A1, “METHODS AND COMPOSITIONS FOR TREATING CANCER” (City of Hope, priority 2019, published 2022).
# Columns and labels:
# IDH-mutant AML cells = IDH-mutant AML cells from patients resistant to IDH inhibitors
# NB4 cells = assay: Combination with DNMT inhibitors, cell growth; type: cell-based; conditions: 48 hours, 256 nM formula (IIa); for effect with DAC on cell growth: 100 nM DAC; for effect with AZA on cell growth: 1000 nM AZA
# Method: (§1) Cell proliferation was measured. […] This experiment was repeated with NB4 cells. […] Synergistic inhibitory effect of FTO inhibitor together with DNMT inhibitor on cell proliferation was observed.
# NB4 AML cells were treated with 256 nM compound of formula (IIa), 1000 nM AZA, 100 nM DAC, or their combinations for 48 hours. Effects of compound of formula (IIa), DAC, AZA and combined effects of compound of formula (IIa) with either DAC or AZA on […] AML cell growth was measured (FIG. 9D).
# MA9.3ITD AML cells = assay: Xenograft AML mouse model with MA9.3ITD cells; conditions: mouse, in vivo
# GBM cells = assay: Sensitization of GBM cells to temozolomide
# [1] = system: PD-L1 and PD-L2 in NOMO-1 AML cells; assay: Expression of PD-L1 and PD-L2 upon FTO inhibition; type: cell-based
# NOMO-1 cells = assay: Combination with DNMT inhibitors, cell proliferation; type: cell-based; conditions: 128 nM formula (I), 256 nM formula (II), 48 hours; for effect with DAC on cell growth: 100 nM DAC; for effect with AZA on cell growth: 1000 nM AZA
# Method: as §1
# [2] = system: murine FLT3ITD/NPM1mut leukemic cells; assay: Colony forming assay; conditions: 10 nM or 50 nM; b415
# Drug toxicity in vivo = conditions: for H&E staining versus control / complete blood count (WBC, RBC, PLT) versus control / whole body weight and weights of organs (heart, liver, spleen, lung, kidney) versus vehicle control: 5 and 20 mg/kg/day, once every other day for 10 days; for overall safety: at least at a dose 4-fold higher than the efficacious dose
# [3] = system: TKI-resistant KASUMI-1 and MV4-11 AML cell lines; assay: TKI resistance in TKI-resistant AML cell lines
# [4] = system: primary murine MLL-AF9 (MA9) leukemic cells; assay: Colony forming assay; conditions: 10 nM formula (I) + 20 nM DAC; serial colony forming assays
SMILES,effect with IDH inhibitor (IDH-mutant AML cells),sensitivity to treatment (IDH-mutant AML cells),effect with DAC on cell growth (NB4 cells),effect with AZA on cell growth (NB4 cells),"anti-leukemic effects compared with FB23-2 (survival, spleen weight, engraftment) (MA9.3ITD AML cells)",sensitization to temozolomide (TMZ) (GBM cells),PD-L1 and PD-L2 levels [1],effect with DAC on cell growth (NOMO-1 cells),effect with AZA on cell growth (NOMO-1 cells),colony forming activity [2],H&E staining versus control (Drug toxicity in vivo),"complete blood count (WBC, RBC, PLT) versus control (Drug toxicity in vivo)","whole body weight and weights of organs (heart, liver, spleen, lung, kidney) versus vehicle control (Drug toxicity in vivo)",overall safety (Drug toxicity in vivo),TKI resistance [3],effect with DAC on colony forming activity [4]
Cc1c(-c2ccc(-c3ccccc3F)cc2)nc2ccc(F)cc2c1C(=O)O [formula (II)],synergistic effect,sensitive,synergistic inhibitory effect on cell growth,synergistic inhibitory effect on cell growth,much stronger anti-leukemic effects than FB23-2,sensitize GBM cells,down-regulation of PD-L1 and PD-L2 levels,synergistic inhibitory effect on cell growth,synergistic inhibitory effect on cell growth,dose dependent decreased colony forming activity,no difference between the groups,did not show significant differences,No significant difference,safe,overcome TKI resistance,
C(=N\NC1=NCCN1)/c1c2ccccc2c(/C=N/NC2=NCCN2)c2ccccc12 [formula (I)],synergistic effect,sensitive,synergistic inhibitory effect on cell growth,synergistic inhibitory effect on cell growth,,sensitize GBM cells,down-regulation of PD-L1 and PD-L2 levels,synergistic inhibitory effect on cell growth,synergistic inhibitory effect on cell growth,,no difference between the groups,did not show significant differences,No significant difference,safe,overcome TKI resistance,synergistic effect
